Experimental data: PubChem BioAssay AID686979 (National Center for Advancing Translational Sciences (NCATS), 2013)
About 50,000 (12%) of roughly 420,000 compounds were called active. Inconclusive means that the source gave no clear call. Such entries were picked first, then a sample of the others. Calls come from the whole dose curve; as a rule, active = well fitted inhibition curve with a large enough effect; inconclusive = small, poorly fitted or top-dose-only effect; inactive = flat fitted curve, though single readings scatter. Potencies of inconclusive entries are left out as doubtful fits.

Experiment: qHTS for Inhibitors of human tyrosyl-DNA phosphodiesterase 1 (TDP1): qHTS in cells in presence of CPT; note: nearly all actives have a fitted effect of over 55% in size
Details: chicken DT40 Tdp1-/-;hTDP1 cells + 20 nM CPT, ATP luminescence, 48 h; activity change, negative = growth inhibition: at 46.2 µM (top of the series)
Method in brief: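 Chicken DT40 Tdp1-/- cells stably complemented with human TDP1 were seeded at 400 cells/well in medium containing 20 nM camptothecin, exposed to pin-transferred compounds, and grown at 37 °C for at least 48 hr. Viability was read as ATP luminescence.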
% is set by controls: 0 for no effect and ±100 for the full control effect; potency is the fitted concentration of half-maximal effect; tags give direction and shape of the fitted curve.

Compound | Potency | activity change, negative = growth inhibition
COc1ccccc1N1CCN(CC(O)c2c(C)[nH]c3ccccc23)CC1 (stereo not given) | inconclusive [inhibitor, single point] | 
Cc1cccc(NC(=O)CSc2nc(C)c(CC(=O)c3ccc(Br)cc3)c(C)c2C#N)c1C | active: 13 µM | 
CC(=O)C1=C(O)C(=O)N(CCc2c[nH]c3ccccc23)C1c1ccc(O)cc1 (stereo not given) | inactive | 
CC(C)(C)NC(=S)N1CCC2CC1c1cc(-c3ccc4c(c3)OCO4)ccc12 (stereo not given) | inconclusive [inhibitor, single point] | 
Cn1nccc1C(=O)OCC(=O)Nc1ccccc1Cl | inactive | 
COc1cccc(N2CCN(C(=O)c3cc4c(=O)oc5ccc(C)cc5c4s3)CC2)c1 |  | inconclusive: -30% [inhibitor]
CSCC[C@H](NC(=O)OC(C)(C)C)c1nnc(SCc2ccc(F)cc2)o1 | inconclusive [inhibitor, partial curve] | 
Cc1nnc(SCC(=O)Nc2c(Cl)cccc2Cl)n(N)c1=O | inconclusive [inhibitor, partial curve, poor fit] | 
CCCC(=O)N1CCN(c2nc3ccc(Br)cc3s2)CC1 | inconclusive [inhibitor, single point] | 
O=C(CCNC(=O)c1ccccc1Cl)NCC1CCCO1 (stereo not given) | inactive | 
O=C(Nc1ccncc1)c1sc2ccccc2c1Cl | inconclusive [inhibitor, partial curve, poor fit] | 
C[C@@]12CCC3[C@@](CC[C@@H]4[C@](C)(C(=O)O)CCC[C@@]34C)(C[C@H]1O)C2 (stereo not given in full) | inactive | 
CN1C[C@@H]2C(c3ccccc3)C3(c4cccnc4)CC2(C3)[C@H]1c1ccccc1 (stereo not given in full) | inactive | 
COc1ccc([C@H]2C[C@H](O)[C@@H](n3cc(C4CC4)nn3)CN2Cc2cccs2)cc1 | inconclusive [inhibitor, single point] | 
Cc1c(C(=O)N2CCOCC2)[nH]c2ccc(OCc3ccccc3)cc12 | inactive | 
CCCn1c2ccccc2c2cnn(CC(=O)N3CCCC(C)C3)c(=O)c21 (stereo not given) | inconclusive [inhibitor, single point] | 
COc1ccc(-c2nc3cc(C)ccc3cc2CN(C(=O)c2csc(C)n2)C2CC2)cc1OC |  | inactive: 8.94% [at 9.04 µM]
C=CCNc1nc2c(c(=O)[nH]c(=O)n2C)n1Cc1cccc(C)c1 | inconclusive [inhibitor, partial curve] | 
Cc1ccc(SC2CC(=O)N(c3ccc4c(c3)OCCO4)C2=O)cc1 (stereo not given) | inconclusive [inhibitor, single point] | 
O=C(NCCCc1nc2ccccc2n1Cc1ccc(Cl)cc1)C1CCCCC1 | active: 16.4 µM | 
CCCn1c(N)c(C(=O)CSc2nnc3n2CCCCC3)c(=O)n(C)c1=O | inactive | 
COc1ccc(NC(=S)NCCc2ccc(Cl)cc2)c(OC)c1 | inconclusive [inhibitor, single point] | 
COc1ccc(OC)c(/C(C)=N\NC(=O)c2cc3cc(Cl)ccc3n2C)c1 | active: 5.8 µM | 

Compound | Potency | activity change, negative = growth inhibition
COCc1c(C(=O)N2CCN(Cc3ccc(C#N)cc3)CC2)oc2ccccc12 | inactive | 
CCc1ccccc1-n1c(C)nc2cc(C(=O)NCCc3ccc(Cl)cc3)ccc21 | inconclusive [inhibitor, single point] | 
COc1cccc(CNS(=O)(=O)c2ccc(N3CCCC3=O)cc2)c1 | inactive | 
O=C(Nc1ccc(CN2CCOCC2)cc1)c1ccc(N2CCCC2)c([N+](=O)[O-])c1 | inconclusive [inhibitor, partial curve] | 
NC(=O)C(Cc1ccccc1)NS(=O)(=O)c1ccc(N2CCCC2=O)cc1 (stereo not given) | inconclusive [inhibitor, single point] | 
COc1cccc(-c2cc(C(=O)Nc3c(C)nn(Cc4ccccc4C)c3C)no2)c1 | inconclusive [inhibitor, single point] | 
Cc1noc(C)c1COc1ccccc1C(=O)N1CCN(S(=O)(=O)c2ccccc2F)CC1 | inconclusive [inhibitor, single point] | 
Cc1ccc2cc(CCNC(=O)c3ccc(C)c([N+](=O)[O-])c3)c(=O)[nH]c2c1 | active: 20.6 µM | 
O=C(N/N=C/c1cccnc1)c1cc(-c2ccccc2)nc2ccccc12 | inconclusive [inhibitor, partial curve] | 
CC(=O)c1ccc(N2CCN(S(=O)(=O)c3cc(-c4cc(C)no4)ccc3C(C)C)CC2)cc1 | inconclusive [inhibitor, single point] | 
COc1cc(NC(=O)c2ccc(C)cc2C)ccc1NC(=O)c1cccs1 | inactive | 
CC(c1ccco1)N(C(=O)C12CC3CC(CC(C3)C1)C2)c1ccccn1 (stereo not given) | active: 20.6 µM | 
CCOC(=O)C1(Cc2ccccc2C(F)(F)F)CCN(C(=O)c2cc(C)n(C)n2)CC1 | inconclusive [inhibitor, single point] | 
COc1ccc(/C=C/C(=O)Nc2cccnc2Cl)cc1 | inactive | 
Cc1[nH]c2ccccc2c1C(=O)COC(=O)c1ccc2c(=O)n3c(nc2c1)CCC3 | inactive | 
COc1ccc(-c2csc(NC(=S)NC(=O)/C=C/c3ccc(C(C)C)cc3)n2)cc1OC | inconclusive [inhibitor, single point] | 
Cn1c(=O)[nH]c(=O)c2c1nc(CN1CCOCC1)n2CCc1ccccc1 | inactive | 
CC(C)C(C)NC(=O)COn1nnc2ccc(S(=O)(=O)N3CCOCC3)cc21 (stereo not given) | inactive | 
CCOC(=O)c1c(CSC(=N)N)n(-c2ccc(Br)cc2)c2cc(Br)c(OC(C)=O)cc12 | inconclusive [inhibitor, single point] | 
O=C1Nc2ccc(Cl)cc2C(=O)C1(F)c1ccccc1 (stereo not given) | inconclusive [inhibitor, single point] | 
CC(=O)Nc1cc(C(=O)N2CCc3ccccc3C2)ccc1Sc1ccc(Cl)cc1 | inconclusive [inhibitor, single point] | 
Cc1ccc(-n2ncc(C(=O)NCCN3CCCC3)c2C2CCN(C(=O)OC(C)(C)C)CC2)cc1C | active: 16.4 µM | 
